# From the supplement of paper PMC8728848
# The list shows a part of the results.
# B1: rCNL (Clitocybe nebularis), B2ZRS9 (protein)
# chain: SITPGTYNITNVAYTNRLIDLTGSNPAENTLIIGHHLNKTPSGYGNQQWTLVQLPHTTIYTMQAVNPQSYVRVRDDNLVDGAALVGSQQPTPVSIESAGNSGQFRIKIPNLGLALTLPSDANSTPIVLGEVDETSTNQLWAFESVSAV
# What was measured:
# Experiment in all cases: glycan array binding signal (z-score within array); higher = stronger binding
# Settings in all cases: glycan notation: IUPAC condensed, linker removed
# [1] = target: Glc(b1-6)Glc
# Summary of the method: (§1)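 The Consortium for Functional Glycomics database supplied 3228 glycan arrays, of which those lacking an available protein sequence were dropped. The binding signal, a within-array Z-score, was averaged across arrays of the same protein sequence and across linkers. Negative scores can be read as non-binding.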
# [2] = target: GlcA(b1-3)Gal
# Summary of the method: as §1
# [3] = target: GlcA(b1-3)GlcNAc
# Summary of the method: as §1
# [4] = target: GlcA(b1-6)Gal
# Summary of the method: as §1
# [5] = target: GlcA3S(b1-3)Gal(b1-4)GlcNAc(b1-2)Man
# Summary of the method: as §1
# [6] = target: GlcA3S(b1-3)Gal(b1-4)GlcNAc(b1-3)Gal(b1-4)Glc
# Summary of the method: as §1
# [7] = target: GlcNAc(a1-3)Gal(b1-4)GlcNAc
# Summary of the method: as §1
# [8] = target: GlcNAc(a1-4)Gal(b1-3)GlcNAc
# Summary of the method: as §1
# [9] = target: GlcNAc(a1-4)Gal(b1-4)GalNAc
# Summary of the method: as §1
# [10] = target: GlcNAc(a1-4)Gal(b1-4)GlcNAc
# Summary of the method: as §1
# [11] = target: GlcNAc(a1-4)Gal(b1-4)GlcNAc(b1-3)Gal(b1-4)Glc
# Summary of the method: as §1
# [12] = target: GlcNAc(a1-4)Gal(b1-4)GlcNAc(b1-3)Gal(b1-4)GlcNAc
# Summary of the method: as §1
# [13] = target: GlcNAc(a1-4)Gal(b1-4)GlcNAc(b1-3)Gal(b1-4)GlcNAc(b1-3)Gal(b1-4)GlcNAc
# Summary of the method: as §1
# [14] = target: GlcNAc(a1-4)Gal(b1-4)GlcNAc(b1-3)Gal(b1-4)[Fuc(a1-3)]GlcNAc(b1-3)Gal(b1-4)[Fuc(a1-3)]GlcNAc
# Summary of the method: as §1
# [15] = target: GlcNAc(a1-6)Gal(b1-4)GlcNAc
# Summary of the method: as §1
# [16] = target: GlcNAc(b1-2)Gal(b1-3)GalNAc
# Summary of the method: as §1
# [17] = target: GlcNAc(b1-2)Man(a1-3)[GlcNAc(b1-2)Man(a1-6)]Man(b1-4)GlcNAc(b1-4)GlcNAc
# Summary of the method: as §1
# [18] = target: GlcNAc(b1-2)Man(a1-3)[GlcNAc(b1-2)Man(a1-6)]Man(b1-4)GlcNAc(b1-4)[Fuc(a1-6)]GlcNAc
# Summary of the method: as §1
# [19] = target: GlcNAc(b1-2)Man(a1-3)[GlcNAc(b1-4)][GlcNAc(b1-2)Man(a1-6)]Man(b1-4)GlcNAc(b1-4)GlcNAc
# Summary of the method: as §1
# [20] = target: GlcNAc(b1-2)Man(a1-3)[GlcNAc(b1-4)][GlcNAc(b1-2)Man(a1-6)]Man(b1-4)GlcNAc(b1-4)[Fuc(a1-6)]GlcNAc
# Summary of the method: as §1
# [21] = target: GlcNAc(b1-2)[GlcNAc(b1-4)]Man(a1-3)[GlcNAc(b1-2)Man(a1-6)]Man(b1-4)GlcNAc(b1-4)GlcNAc
# Summary of the method: as §1
# [22] = target: GlcNAc(b1-2)[GlcNAc(b1-4)]Man(a1-3)[GlcNAc(b1-4)][GlcNAc(b1-2)Man(a1-6)]Man(b1-4)GlcNAc(b1-4)GlcNAc
# Summary of the method: as §1
# [23] = target: GlcNAc(b1-2)[GlcNAc(b1-4)]Man(a1-3)[GlcNAc(b1-4)][GlcNAc(b1-2)[GlcNAc(b1-6)]Man(a1-6)]Man(b1-4)GlcNAc(b1-4)GlcNAc
# Summary of the method: as §1
# [24] = target: GlcNAc(b1-2)[GlcNAc(b1-4)]Man(a1-3)[GlcNAc(b1-4)][GlcNAc(b1-2)[GlcNAc(b1-6)]Man(a1-6)]Man(b1-4)GlcNAc(b1-4)[Fuc(a1-6)]GlcNAc
# Summary of the method: as §1
# [25] = target: GlcNAc(b1-2)[GlcNAc(b1-6)]Man(a1-6)[GlcNAc(b1-2)Man(a1-3)]Man(b1-4)GlcNAc(b1-4)GlcNAc
# Summary of the method: as §1
# [26] = target: GlcNAc(b1-2)[GlcNAc(b1-6)]Man(a1-6)[GlcNAc(b1-2)Man(a1-3)]Man(b1-4)GlcNAc(b1-4)[Fuc(a1-6)]GlcNAc
# Summary of the method: as §1
# [27] = target: GlcNAc(b1-2)[GlcNAc(b1-6)]Man(a1-6)[GlcNAc(b1-4)][GlcNAc(b1-2)Man(a1-3)]Man(b1-4)GlcNAc(b1-4)GlcNAc
# Summary of the method: as §1
# [28] = target: GlcNAc(b1-3)Fuc
# Summary of the method: as §1
# [29] = target: GlcNAc(b1-3)Gal
# Summary of the method: as §1
# [30] = target: GlcNAc(b1-3)Gal(b1-3)GalNAc
# Summary of the method: as §1
# [31] = target: GlcNAc(b1-3)Gal(b1-4)Glc
# Summary of the method: as §1
# [32] = target: GlcNAc(b1-3)Gal(b1-4)GlcNAc
# Summary of the method: as §1
# [33] = target: GlcNAc(b1-3)Gal(b1-4)GlcNAc(b1-2)Man(a1-3)[GlcNAc(b1-3)Gal(b1-4)GlcNAc(b1-2)Man(a1-6)]Man(b1-4)GlcNAc(b1-4)GlcNAc
# Summary of the method: as §1
# [34] = target: GlcNAc(b1-3)Gal(b1-4)GlcNAc(b1-2)Man(a1-3)[GlcNAc(b1-3)Gal(b1-4)GlcNAc(b1-2)Man(a1-6)]Man(b1-4)GlcNAc(b1-4)[Fuc(a1-6)]GlcNAc
# Summary of the method: as §1
# [35] = target: GlcNAc(b1-3)Gal(b1-4)GlcNAc(b1-2)[GlcNAc(b1-3)Gal(b1-4)GlcNAc(b1-6)]Man(a1-6)[GlcNAc(b1-3)Gal(b1-4)GlcNAc(b1-2)Man(a1-3)]Man(b1-4)GlcNAc(b1-4)GlcNAc
# Summary of the method: as §1
# [36] = target: GlcNAc(b1-3)Gal(b1-4)GlcNAc(b1-3)Gal(b1-4)GlcNAc
# Summary of the method: as §1
# [37] = target: GlcNAc(b1-3)Gal(b1-4)GlcNAc(b1-3)Gal(b1-4)GlcNAc(b1-2)Man(a1-3)[GlcNAc(b1-3)Gal(b1-4)GlcNAc(b1-3)Gal(b1-4)GlcNAc(b1-2)Man(a1-6)]Man(b1-4)GlcNAc(b1-4)GlcNAc
# Summary of the method: as §1
# [38] = target: GlcNAc(b1-3)Gal(b1-4)GlcNAc(b1-3)Gal(b1-4)GlcNAc(b1-2)Man(a1-3)[GlcNAc(b1-3)Gal(b1-4)GlcNAc(b1-3)Gal(b1-4)GlcNAc(b1-2)Man(a1-6)]Man(b1-4)GlcNAc(b1-4)[Fuc(a1-6)]GlcNAc
# Summary of the method: as §1
# [39] = target: GlcNAc(b1-3)Gal(b1-4)GlcNAc(b1-3)Gal(b1-4)GlcNAc(b1-2)[GlcNAc(b1-3)Gal(b1-4)GlcNAc(b1-3)Gal(b1-4)GlcNAc(b1-6)]Man(a1-6)[GlcNAc(b1-3)Gal(b1-4)GlcNAc(b1-3)Gal(b1-4)GlcNAc(b1-2)Man(a1-3)]Man(b1-4)GlcNAc(b1-4)[Fuc(a1-6)]GlcNAc
# Summary of the method: as §1
# [40] = target: GlcNAc(b1-3)Gal(b1-4)GlcNAc(b1-3)Gal(b1-4)GlcNAc(b1-3)Gal(b1-4)GlcNAc(b1-2)Man(a1-3)[GlcNAc(b1-3)Gal(b1-4)GlcNAc(b1-3)Gal(b1-4)GlcNAc(b1-3)Gal(b1-4)GlcNAc(b1-2)Man(a1-6)]Man(b1-4)GlcNAc(b1-4)GlcNAc
# Summary of the method: as §1
# [41] = target: GlcNAc(b1-3)Gal(b1-4)GlcNAc(b1-3)Gal(b1-4)GlcNAc(b1-3)Gal(b1-4)GlcNAc(b1-2)Man(a1-3)[GlcNAc(b1-3)Gal(b1-4)GlcNAc(b1-3)Gal(b1-4)GlcNAc(b1-3)Gal(b1-4)GlcNAc(b1-2)Man(a1-6)]Man(b1-4)GlcNAc(b1-4)[Fuc(a1-6)]GlcNAc
# Summary of the method: as §1
# [42] = target: GlcNAc(b1-3)Gal(b1-4)GlcNAc(b1-3)Gal(b1-4)GlcNAc(b1-3)Gal(b1-4)GlcNAc(b1-2)[GlcNAc(b1-3)Gal(b1-4)GlcNAc(b1-3)Gal(b1-4)GlcNAc(b1-3)Gal(b1-4)GlcNAc(b1-6)]Man(a1-6)[GlcNAc(b1-3)Gal(b1-4)GlcNAc(b1-3)Gal(b1-4)GlcNAc(b1-3)Gal(b1-4)GlcNAc(b1-2)Man(a1-3)]Man(b1-4)GlcNAc(b1-4)[Fuc(a1-6)]GlcNAc
# Summary of the method: as §1
# [43] = target: GlcNAc(b1-3)Gal(b1-4)GlcNAc(b1-3)Gal(b1-4)GlcNAc(b1-3)Gal(b1-4)GlcNAc(b1-3)Gal(b1-4)GlcNAc(b1-2)Man(a1-3)[GlcNAc(b1-3)Gal(b1-4)GlcNAc(b1-3)Gal(b1-4)GlcNAc(b1-3)Gal(b1-4)GlcNAc(b1-3)Gal(b1-4)GlcNAc(b1-2)Man(a1-6)]Man(b1-4)GlcNAc(b1-4)GlcNAc
# Summary of the method: as §1
# [44] = target: GlcNAc(b1-3)Gal(b1-4)GlcNAc(b1-3)Gal(b1-4)GlcNAc(b1-3)Gal(b1-4)GlcNAc(b1-3)Gal(b1-4)GlcNAc(b1-2)Man(a1-3)[GlcNAc(b1-3)Gal(b1-4)GlcNAc(b1-3)Gal(b1-4)GlcNAc(b1-3)Gal(b1-4)GlcNAc(b1-3)Gal(b1-4)GlcNAc(b1-2)Man(a1-6)]Man(b1-4)GlcNAc(b1-4)[Fuc(a1-6)]GlcNAc
# Summary of the method: as §1
# [45] = target: GlcNAc(b1-3)Gal(b1-4)GlcNAc(b1-3)Gal(b1-4)GlcNAc(b1-3)Gal(b1-4)GlcNAc(b1-3)Gal(b1-4)GlcNAc(b1-2)[GlcNAc(b1-3)Gal(b1-4)GlcNAc(b1-3)Gal(b1-4)GlcNAc(b1-3)Gal(b1-4)GlcNAc(b1-3)Gal(b1-4)GlcNAc(b1-6)]Man(a1-6)[GlcNAc(b1-3)Gal(b1-4)GlcNAc(b1-3)Gal(b1-4)GlcNAc(b1-3)Gal(b1-4)GlcNAc(b1-3)Gal(b1-4)GlcNAc(b1-2)Man(a1-3)]Man(b1-4)GlcNAc(b1-4)[Fuc(a1-6)]GlcNAc
# Summary of the method: as §1
binder,measurement,setting,value
B1,glycan array binding signal (z-score),[1],-0.297
same,glycan array binding signal (z-score),[2],-0.304
same,glycan array binding signal (z-score),[3],-0.297
same,glycan array binding signal (z-score),[4],-0.301
same,glycan array binding signal (z-score),[5],-0.226
same,glycan array binding signal (z-score),[6],-0.227
same,glycan array binding signal (z-score),[7],0.044
same,glycan array binding signal (z-score),[8],-0.306
same,glycan array binding signal (z-score),[9],-0.295
same,glycan array binding signal (z-score),[10],-0.305
same,glycan array binding signal (z-score),[11],-0.109
same,glycan array binding signal (z-score),[12],0.009
same,glycan array binding signal (z-score),[13],0.017
same,glycan array binding signal (z-score),[14],-0.282
same,glycan array binding signal (z-score),[15],0.139
same,glycan array binding signal (z-score),[16],0.191
same,glycan array binding signal (z-score),[17],-0.157
same,glycan array binding signal (z-score),[18],-0.206
same,glycan array binding signal (z-score),[19],-0.223
same,glycan array binding signal (z-score),[20],-0.228
same,glycan array binding signal (z-score),[21],-0.103
same,glycan array binding signal (z-score),[22],-0.225
same,glycan array binding signal (z-score),[23],-0.218
same,glycan array binding signal (z-score),[24],-0.227
same,glycan array binding signal (z-score),[25],-0.215
same,glycan array binding signal (z-score),[26],-0.225
same,glycan array binding signal (z-score),[27],-0.224
same,glycan array binding signal (z-score),[28],-0.226
same,glycan array binding signal (z-score),[29],-0.152
same,glycan array binding signal (z-score),[30],-0.105
same,glycan array binding signal (z-score),[31],0.466
same,glycan array binding signal (z-score),[32],0.117
same,glycan array binding signal (z-score),[33],-0.219
same,glycan array binding signal (z-score),[34],-0.209
same,glycan array binding signal (z-score),[35],-0.228
same,glycan array binding signal (z-score),[36],0.464
same,glycan array binding signal (z-score),[37],-0.098
same,glycan array binding signal (z-score),[38],-0.211
same,glycan array binding signal (z-score),[39],-0.218
same,glycan array binding signal (z-score),[40],-0.223
same,glycan array binding signal (z-score),[41],-0.217
same,glycan array binding signal (z-score),[42],-0.212
same,glycan array binding signal (z-score),[43],-0.219
same,glycan array binding signal (z-score),[44],-0.215
same,glycan array binding signal (z-score),[45],-0.209
